Laboratory results as given in paper doi:10.1101/2025.09.02.673761 (bioRxiv, 2025).

Legend:
[1] = biological target: GFP-tagged Aurora B kinase, subunit of CPC-GFP (human, UniProt Q96GD4 1-344); test: SEC + other: mass photometry
[2] = biological target: T1, Borealin, subunit of CPC-GFP (human, UniProt Q53HL2 1-280); test: SEC + other: mass photometry
T1 sequence: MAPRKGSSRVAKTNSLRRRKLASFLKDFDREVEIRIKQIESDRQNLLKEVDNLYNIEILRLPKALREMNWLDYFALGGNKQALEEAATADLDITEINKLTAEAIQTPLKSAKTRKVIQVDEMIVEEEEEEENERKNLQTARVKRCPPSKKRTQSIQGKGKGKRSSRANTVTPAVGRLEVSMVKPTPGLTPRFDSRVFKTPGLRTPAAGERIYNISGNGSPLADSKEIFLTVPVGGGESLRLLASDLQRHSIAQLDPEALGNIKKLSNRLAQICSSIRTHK

Chain of UniProt Q96GD4 (Q96GD4 whole entry): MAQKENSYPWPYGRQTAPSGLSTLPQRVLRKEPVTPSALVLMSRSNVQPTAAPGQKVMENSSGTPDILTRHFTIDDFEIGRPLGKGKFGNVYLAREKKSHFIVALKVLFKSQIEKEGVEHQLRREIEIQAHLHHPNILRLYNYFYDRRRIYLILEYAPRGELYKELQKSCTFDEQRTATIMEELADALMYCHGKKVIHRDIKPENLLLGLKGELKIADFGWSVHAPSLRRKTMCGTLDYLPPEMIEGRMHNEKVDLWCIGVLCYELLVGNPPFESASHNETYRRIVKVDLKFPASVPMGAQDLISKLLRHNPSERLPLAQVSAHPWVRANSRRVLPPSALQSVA

B1: INCENP (Inner Centromere Protein), subunit of CPC-GFP (natural protein)
chain: MGTTAPGPIHLLELCDQKLMEFLCNMDNKDLVWLEEIQEEAERMFTREFSKEPELMPKTPSQKNRRKKRRISYVQDENRDPIRRRLSRRKSRSSQLSSRRLRSKDSVEKLATVVGENGSVLRRVTRAAAAAAAATMALAAPSSPTPESPTMLTKKPEDNHTQCQLVPVVEIGISERQNAEQHVTQLMSTEPLPRTLSPTPASATAPTSQGIPTSDEESTPKKSKARILESITVSSLMATPQDPKGQGVGTGRSASKLRIAQVSPGPRDSPAFPDSPWRERVLAPILPDNFSTPTGSRTDSQSVRHSPIAPSSPSPQVLAQKYSLVAKQESVVRRASRRLAKKTAEEPAASGRIICHSYLERLLNVEVPQKVGSEQKEPPEEAEPVAAAEPEVPENNGNNSWPHNDTEIANSTPNPKPAASSPETPSAGQQEAKTDQADGPREPPQSARRKRSYKQAVSELDEEQHLEDEELQPPRSKTPSSPCPASKVVRPLRTFLHTVQRNQMLMTPTSAPRSVMKSFIKRNTPLRMDPKCSFVEKERQRLENLRRKEEAEQLRRQKVEEDKRRRLEEVKLKREERLRKVLQARERVEQMKEEKKKQIEQKFAQIDEKTEKAKEERLAEEKAKKKAAAKKMEEVEARRKQEEEARRLRWLQQEEEERRHQELLQKKKEEEQERLRKAAEAKRLAEQREQERREQERREQERREQERREQERREQERQLAEQERRREQERLQAERELQEREKALRLQKEQLQRELEEKKKKEEQQRLAERQLQEEQEKKAKEAAGASKALNVTVDVQSPACTSYQMTPQGHRAPPKINPDNYGMDLNSDDSTDDEAHPRKPIPTWARGTPLSQAIIHQYYHPPNLLELFGTILPLDLEDIFKKSKPRYHKRTSSAVWNSPPLQGARVPSSLAYSLKKH
- stoichiometry N [1]: 1
- stoichiometry N [2]: 1
